Measured values taken from PubChem BioAssay AID624418 (National Center for Advancing Translational Sciences (NCATS), 2012).
“And” between values parts separate entries of the source, which are not always exact repeats. Identical values can stand only once. Hit rate of the full screen: of about 410,000 compounds, about 530 (0.13%) were called active. Inconclusive results, whose numbers are uncertain, are shown with a selection of clear calls. The call rests on the fitted dose curve; in most records, active means well fitted inhibition curve with a large enough effect; inconclusive means small, poorly fitted or top-dose-only effect, or another doubt; inactive means no such curve, though single readings can be large or run the other way. Where the call is inconclusive, the potency comes from a doubtful curve fit.

Assay: qHTS of GLP-1 Receptor Inverse Agonists: Cytotox Screen
Conditions: HEK293 cAMP-luciferase reporter cells, luminescence, 24 h; series mostly up to 38.3 µM
Excerpt: The overall goal of this project was to develop a novel assay for discovering small molecule ligands for class B1 G protein-coupled receptors (GPCRs). Very few agonists (or inverse agonists) with generally weak activity for this entire group of physiologically important receptors are known to date. To establish proof-of-principle that this critical bottleneck can be overcome with a suitable screening approach, our studies focused on the class B1 receptor for glucagon-like peptide-1 (GLP-1R), a potential therapeutic target for diabetes and neurodegenerative disease.
The assay was developed using a cell-based functional readout. Toward this goal, stably transfected HEK293 cell clones were established that co-express (i) a cAMP-responsive luciferase reporter gene, and (ii) constitutively active GLP-1R that upon ligand interaction inhibit (inverse agonists) the luciferase activity. In addition, two control cell lines were developed: (i) one that express only the cAMP-responsive reporter gene to enable initial exclusion of GLP-1R independent effects of candidate probes; and (ii) one with the reported gene cloned with another constitutively active orphan receptor GPR119 to enable exclusion of GLP-1R independent inhibitor effects of candidate inverse agonists.
To that end, this assay was optimized for 1536-well format and screened against the MLSMR. Then the same collection was run in this cytotoxicity assay where inhibition was the undesired outcome.
NIH Molecular Libraries Probe Production Network [MLPCN]
NIH Chemical Genomics Center [NCGC]
PI Name: Martin Beinborn, Tufts Medical Center
Six ul of cell suspension (200 cells/uL in DMEM + 10% Nu serum + 1% pen-strep) is dispensed in a white solid 1536-well plate. The plates are incubated for 12 hours at 37 deg C at 5% CO2 followed by addition of 23 nL compounds. After 24 hr incubation at 37 deg C and 5% CO2, 3 uL of luciferase assay detection reagent is added. A luminescence read is obtained on the PerkinElmer Viewlux after 12 min incubation at room temperature.
Potency means the concentration at half of the fitted maximal effect.

**Q.** For `CCOc1ccc(-c2cc(C)[n+](CCN3CCOCC3)c(-c3ccc(OCC)cc3)c2)cc1`, which Potency is on record?
**A.** inconclusive: 5.62 µM [inhibitor, partial curve, poor fit]

**Q.** Which Potency does the source give for `O=c1[nH]c(O)c(N=Nc2cc([N+](=O)[O-])ccc2O)c(=O)[nH]1` here?
**A.** inconclusive: 10 µM [inhibitor, partial curve]

**Q.** Which Potency does the source give for `COc1cc(/C=C2\SC(=S)N(NC(=O)c3cccc(O)c3)C2=O)ccc1O` here?
**A.** inconclusive: 14.1 µM [inhibitor, partial curve, poor fit]

**Q.** For `COc1cc(C2c3cc4c(cc3CC3COC(=O)C32)OCO4)cc(OC)c1OC` (configuration not stated), which Potency is on record?
**A.** inconclusive: 0.355 µM [inhibitor, full curve, poor fit]

**Q.** For `COc1cc(CNC(C)C23CC4CC(CC(C4)C2)C3)ccc1OCC(=O)NC(C)(C)C` (configuration not stated), which Potency is on record?
**A.** inconclusive: 28.2 µM [inhibitor, single point]

**Q.** For `COC1=CC(=O)c2ccccc2C1=O`, which Potency is on record?
**A.** inconclusive: 22.4 µM [inhibitor, single point]

**Q.** Which Potency does the source give for `Clc1ccc2c(c1)C(OC1CN3CCC1CC3)c1ccccc1CS2` (configuration not stated) here?
**A.** inconclusive: 28.2 µM [inhibitor, single point]

**Q.** Which Potency does the source give for `CN1C(=O)C(Cc2nc3ccccc3c(=O)n2-c2ccccc2)c2ccccc21` (configuration not stated) here?
**A.** inconclusive: 11.2 µM [inhibitor, single point]

**Q.** For `C[C@@H]1CN([C@H](C)CO)C(=O)c2cc(NC(=O)Nc3ccc(C(F)(F)F)cc3)ccc2O[C@H]1CN(C)S(=O)(=O)c1cccs1`, which Potency is on record?
**A.** inconclusive: 12.6 µM [inhibitor, partial curve, poor fit]

**Q.** Which Potency does the source give for `O=C(Nc1cc([N+](=O)[O-])ccc1C(=O)Nc1cccnc1)c1ccccc1` here?
**A.** inconclusive: 22.4 µM [inhibitor, single point]

**Q.** Which Potency does the source give for `O=[N+]([O-])/C=C/c1c(Cl)cccc1Cl` here?
**A.** inconclusive: 11.2 µM [inhibitor, partial curve, poor fit]

**Q.** For `Cc1ccc(SCC(=O)OCC(=O)N(CC(C)C)c2c(N)n(Cc3ccccc3)c(=O)[nH]c2=O)c(C)c1`, which Potency is on record?
**A.** inconclusive: 28.2 µM [inhibitor, single point]

**Q.** For `CC(C)(C#CCN1CCCCC1)OCCOC(c1ccccc1)c1ccccc1`, which Potency is on record?
**A.** inconclusive: 28.2 µM [inhibitor, single point]

**Q.** With `Cc1ccc(NC(=O)/C=C/c2ccco2)nc1` as the molecule, how does the Potency read?
**A.** inconclusive: 0.316 µM [inhibitor, full curve, poor fit]

**Q.** With `S=C1Nc2ccccc2Sc2ccccc21` as the molecule, how does the Potency read?
**A.** inconclusive: 10 µM [inhibitor, single point]

**Q.** For `COc1ccc(Nc2ccc3c(c2)=NC2(CCCCC2)[N+]=3[O-])cc1`, which Potency is on record?
**A.** inconclusive: 12.6 µM [inhibitor, partial curve, poor fit]

**Q.** With `CCc1c(C2(O)CCCCC2)[nH]c2ccc(C(F)(F)F)cc12` as the molecule, how does the Potency read?
**A.** inconclusive: 22.4 µM [inhibitor, single point]

**Q.** For `CC(=O)N1N=C(c2ccccc2)CC1c1cn(Cc2ccccc2)c2ccccc12` (configuration not stated), which Potency is on record?
**A.** inconclusive: 12.6 µM [inhibitor, single point]

**Q.** With `COc1ccc(CNCCC(c2ccc(F)cc2)c2ccc(OC)cc2)cc1` (configuration not stated) as the molecule, how does the Potency read?
**A.** inconclusive: 10 µM [inhibitor, single point]

**Q.** Which Potency does the source give for `CCOCc1c(C(=O)Nc2ccc3nc(N4CCOCC4)sc3c2)oc2ccccc12` here?
**A.** inconclusive: 20 µM [inhibitor, single point]

**Q.** With `COc1ccc(C(=O)/C(C#N)=N/Nc2ccc([N+](=O)[O-])cc2)cc1` as the molecule, how does the Potency read?
**A.** inconclusive: 1.41 µM [inhibitor, full curve, poor fit]

**Q.** With `C/C1=C\[C@@H](C)C/C=C/[C@H]2[C@@H]3O[C@]3(C)[C@@H](C)[C@H]3[C@H](Cc4c[nH]c5ccccc45)NC(=O)[C@]32C(=O)/C=C/C(=O)[C@@H]1O` as the molecule, how does the Potency read?
**A.** inconclusive: 15.8 µM [inhibitor, single point]

**Q.** With `CCCCCCN1CCN(c2ccccc2Cl)CC1` as the molecule, how does the Potency read?
**A.** inconclusive: 12.6 µM [inhibitor, single point]

**Q.** With `Cc1ccc2c(CN3CC=C(c4ccccc4)CC3)cc(=O)oc2c1C` as the molecule, how does the Potency read?
**A.** inactive

**Q.** Which Potency does the source give for `CC1CCC(C(C)C)C(OC(=O)Cn2c(-c3ccccc3)[n+](C)c3ccccc32)C1` (configuration not stated) here?
**A.** active: 8.91 µM

**Q.** With `CCN1C(=O)CCN(C2CCCC2)c2nc(Nc3ccc(C(=O)NC4CCN(C)CC4)cc3OC)ncc21` as the molecule, how does the Potency read?
**A.** inconclusive: 11.2 µM [inhibitor, partial curve, poor fit]

**Q.** With `CC(C)c1ccc(N2C(=O)NC(=O)/C(=C\C=C\c3ccco3)C2=O)cc1` as the molecule, how does the Potency read?
**A.** inconclusive: 11.2 µM [inhibitor, single point]

**Q.** Which Potency does the source give for `N=C(N)SCc1ccc(Cl)cc1Cl` here?
**A.** inconclusive: 20 µM [inhibitor, single point]

**Q.** With `Cc1ccccc1C(O)(Cc1ccccc1)C1CN2CCC1CC2` (configuration not stated) as the molecule, how does the Potency read?
**A.** inconclusive: 28.2 µM [inhibitor, single point]

**Q.** For `CN1CCN(C(=S)SCC(=O)Nc2ccc(Cl)cc2C(=O)c2ccccc2)CC1`, which Potency is on record?
**A.** inconclusive: 20 µM [inhibitor, single point]

**Q.** For `O=C1NC(=O)N(c2ccccc2)C(=O)/C1=C\C=C\c1ccccc1`, which Potency is on record?
**A.** inconclusive: 12.6 µM [inhibitor, single point]

**Q.** For `C[C@@H]1CCCCO[C@@H](CN(C)CC2CCCCC2)[C@@H](C)CN([C@H](C)CO)C(=O)c2cc(NS(=O)(=O)c3ccc(Cl)cc3)ccc2O1`, which Potency is on record?
**A.** inconclusive: 10 µM [inhibitor, single point]

**Q.** With `COc1ccc(N/N=C/c2c(O)n(-c3cccc(C)c3)c(=O)[nH]c2=O)cc1` as the molecule, how does the Potency read?
**A.** inconclusive: 7.94 µM [inhibitor, partial curve, poor fit]

**Q.** With `CCC(C)NC(=O)CN1C(=O)CN=C(c2ccccc2)c2ccccc21` (configuration not stated) as the molecule, how does the Potency read?
**A.** inconclusive: 12.6 µM [inhibitor, single point]

**Q.** For `COc1cccc(C(=O)N/N=C(/c2ccccc2)c2ccccn2)c1`, which Potency is on record?
**A.** inconclusive: 12.6 µM [inhibitor, partial curve]

**Q.** For `CN(C)c1ccc(/C=C/c2cc[n+](C)c3ccccc23)cc1`, which Potency is on record?
**A.** inconclusive: 10 µM [inhibitor, partial curve, poor fit] and inconclusive: 4.47 µM [inhibitor, partial curve, poor fit]

**Q.** For `CN1C2CCC1/C(=C/c1ccccn1)C(=O)/C2=C\c1ccccn1`, which Potency is on record?
**A.** inconclusive: 1.58 µM [inhibitor, full curve, poor fit]

**Q.** Which Potency does the source give for `Cc1ccc(NC(=O)CN2C(=O)CN=C(c3ccccc3)c3cc(Cl)ccc32)cc1` here?
**A.** inconclusive: 20 µM [inhibitor, single point]

**Q.** Which Potency does the source give for `O=C(c1c[nH]c2ccc(S(=O)(=O)N3CCOCC3)cc2c1=O)N1CCC2(CC1)OCCO2` here?
**A.** inactive

**Q.** For `Nc1nc(CCl)nc(N(c2ccccc2)c2ccccc2)n1`, which Potency is on record?
**A.** inconclusive: 31.6 µM [inhibitor, partial curve, poor fit]

**Q.** Which Potency does the source give for `CC(=O)N1CCN(CCS(=O)(=O)c2cc(Cl)ccc2Cl)CC1` here?
**A.** inconclusive: 12.6 µM [inhibitor, single point]

**Q.** With `CCOc1ccc2c(c1)-c1c(ssc1=S)C(C)(C)N2` as the molecule, how does the Potency read?
**A.** inconclusive: 12.6 µM [inhibitor, single point]

**Q.** For `CCc1ccc(NC(=S)NC2CCN(Cc3ccccc3)CC2)cc1`, which Potency is on record?
**A.** inconclusive: 10 µM [inhibitor, partial curve]

**Q.** With `C=C1C(=O)O[C@@H]2C[C@@H](C)[C@@H]3C=CC(=O)[C@@]3(C)[C@@H](OC(C)=O)[C@H]12` as the molecule, how does the Potency read?
**A.** inconclusive: 2.24 µM [inhibitor, full curve, poor fit]

**Q.** Which Potency does the source give for `CCN1/C(=C\c2ccc3ccccc3[n+]2CC)Sc2cc(C)ccc21` here?
**A.** inconclusive: 10 µM [inhibitor, partial curve, poor fit]

**Q.** For `Cc1cc(C)n(-c2ccc(NN=C(C#N)C#N)cc2)n1`, which Potency is on record?
**A.** inconclusive: 11.2 µM [inhibitor, partial curve, poor fit]

**Q.** Which Potency does the source give for `COc1ccc(C)cc1NC(=O)CCS(=O)(=O)c1ccc2c(c1)oc(=O)n2C` here?
**A.** inconclusive: 3.98 µM [inhibitor, full curve, poor fit]

**Q.** With `COC(=O)C(O)(c1ccc(NC(=S)NC(=O)c2ccc(Cl)cc2Cl)c(C)c1)C(F)(F)F` (configuration not stated) as the molecule, how does the Potency read?
**A.** inconclusive: 20 µM [inhibitor, single point]

**Q.** For `O=C1C(Cl)=CC(=Nc2ccc(O)cc2)C=C1Cl`, which Potency is on record?
**A.** inconclusive: 11.2 µM [inhibitor, single point]

**Q.** With `Oc1ccc(C[C@H]2NCCc3cc(O)c(O)cc32)cc1O` as the molecule, how does the Potency read?
**A.** inconclusive: 12.6 µM [inhibitor, single point]

**Q.** For `CCN(CC)CCOC(=O)c1ccc(N=Cc2c(O)[nH]c(=O)[nH]c2=O)cc1`, which Potency is on record?
**A.** inactive

**Q.** For `C=C1C(=O)O[C@@H]2C[C@@H](C)[C@@H]3C4OC4C(=O)[C@@]3(C)[C@@H](O)[C@H]12` (some centres not stated), which Potency is on record?
**A.** inconclusive: 5.62 µM [inhibitor, full curve, poor fit]

**Q.** With `C=CCn1c(SCC(=O)Nc2ccc(C(=O)OC(C)C)cc2)nnc1-c1cccs1` as the molecule, how does the Potency read?
**A.** inconclusive: 28.2 µM [inhibitor, single point]

**Q.** With `COc1ccc(N2C(=O)/C(=C/c3cccs3)C(=O)NC2=S)cc1` as the molecule, how does the Potency read?
**A.** inactive

**Q.** For `NC(Cc1ccc(Cl)cc1)c1csc(Nc2ncccn2)n1` (configuration not stated), which Potency is on record?
**A.** inconclusive: 8.91 µM [inhibitor, partial curve, poor fit]

**Q.** For `CCCCCN1C(=O)c2ccccc2[C@@]2(C(=O)OCC)Cc3cc(Cl)ccc3[C@@H]12`, which Potency is on record?
**A.** inconclusive: 11.2 µM [inhibitor, single point]

**Q.** For `C=C(C)[C@@]12OC3(c4ccccc4)O[C@@H]1C1[C@@H]4O[C@]4(CO)[C@@H](O)[C@]4(O)C(=O)C(C)=C[C@H]4[C@@]1(O3)[C@H](C)[C@H]2OC(=O)/C=C/C=C/c1ccccc1` (some centres not stated), which Potency is on record?
**A.** inactive
